From paper PMC4336329 (PLoS ONE, 2015)
The campaign covered roughly 310,000 compounds. About 14,000 (4.5%) showed an effect of 50% or more. The effect is printed as a negative number. This is one part of the list.

Each molecule was assayed against human ether-à-go-go-related gene (hERG) potassium channel (human, UniProt Q12809) (assay: primary screen, population patch clamp on CHO cells stably expressing hERG).
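Also: peak tail current of the secondary pulse compared with the same well before compound.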

Sequence of human ether-à-go-go-related gene (hERG) potassium channel (Q12809 whole entry, looked up): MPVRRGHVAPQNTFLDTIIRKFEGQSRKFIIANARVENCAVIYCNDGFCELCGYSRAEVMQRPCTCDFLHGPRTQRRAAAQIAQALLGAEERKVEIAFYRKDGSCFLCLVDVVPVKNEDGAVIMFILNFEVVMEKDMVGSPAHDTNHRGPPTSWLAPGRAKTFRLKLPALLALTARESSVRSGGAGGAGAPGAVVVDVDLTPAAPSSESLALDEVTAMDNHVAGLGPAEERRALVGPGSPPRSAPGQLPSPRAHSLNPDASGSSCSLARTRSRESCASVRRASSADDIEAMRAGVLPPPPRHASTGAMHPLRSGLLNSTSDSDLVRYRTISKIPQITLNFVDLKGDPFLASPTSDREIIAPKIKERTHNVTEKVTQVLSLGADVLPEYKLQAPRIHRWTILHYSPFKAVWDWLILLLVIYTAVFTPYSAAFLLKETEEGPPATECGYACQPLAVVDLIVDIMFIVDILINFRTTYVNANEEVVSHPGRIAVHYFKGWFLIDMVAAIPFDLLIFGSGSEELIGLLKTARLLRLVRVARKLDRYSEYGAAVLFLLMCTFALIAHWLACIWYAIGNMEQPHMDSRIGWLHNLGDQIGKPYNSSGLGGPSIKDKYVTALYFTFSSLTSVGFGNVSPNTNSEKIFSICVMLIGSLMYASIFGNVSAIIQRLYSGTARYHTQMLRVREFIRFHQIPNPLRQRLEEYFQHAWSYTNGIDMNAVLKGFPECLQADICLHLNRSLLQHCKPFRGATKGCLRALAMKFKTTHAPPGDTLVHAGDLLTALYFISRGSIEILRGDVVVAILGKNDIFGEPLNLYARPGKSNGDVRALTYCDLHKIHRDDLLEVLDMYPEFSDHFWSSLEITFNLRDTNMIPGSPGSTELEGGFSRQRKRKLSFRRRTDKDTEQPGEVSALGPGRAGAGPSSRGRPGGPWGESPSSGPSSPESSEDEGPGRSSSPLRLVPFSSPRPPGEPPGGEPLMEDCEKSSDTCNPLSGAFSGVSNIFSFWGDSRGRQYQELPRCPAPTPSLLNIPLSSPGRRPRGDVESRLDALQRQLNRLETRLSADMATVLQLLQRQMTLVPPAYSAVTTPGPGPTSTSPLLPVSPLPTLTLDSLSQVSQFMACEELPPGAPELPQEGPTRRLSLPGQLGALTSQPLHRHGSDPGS

First: Cc1ccc(Cl)c(OCCN2CCCC(C)C2)c1.O=C(O)C(=O)O (stereo not shown)
Second: CCOc1ccccc1CN1CCC(N2CCOCC2)CC1.O=C(O)C(=O)O
The “hERG current change (%, negative = inhibition) at 10uM” value of the first is lower: -41.8% for the first, 16.9% for the second.

Compared with `COc1ccccc1N1CCN(c2nc(N)c(C#N)c(CC#N)c2C#N)CC1`, `Cc1cccc(S(=O)(=O)C(C#N)c2nc3ccccc3nc2N2CCOCC2)c1` (stereo not shown) is higher in “hERG current change (%, negative = inhibition) at 10uM” value: -42.7% for the first, -0.383% for the second.

First: O=C(Cc1c(F)cccc1Cl)Nc1cccc(S(=O)(=O)NC2=NCCCCC2)c1
Second: Cc1ccc(S(=O)(=O)Nc2nc(C)c(NC(=O)Nc3ccc(Cl)cc3Cl)s2)cc1
The “hERG current change (%, negative = inhibition) at 10uM” value of the first is lower: -4.28% for the first, 10.6% for the second.

Compared with `CCS(=O)(=O)N1Cc2ccccc2CC1C(=O)N1CCN(c2ccccc2)CC1` (stereo not shown), `COc1ccc(N2CCN(C3CCCN(C(=O)c4cccc(C)n4)C3)CC2)cc1` (stereo not shown) is higher in “hERG current change (%, negative = inhibition) at 10uM” value: -20.6% for the first, 0.82% for the second.

First: CCCNC(=O)c1ccc(Cn2c(=S)[nH]c3c([nH]c4ccc(OC)cc43)c2=O)cc1
Second: COCCN(C(=O)COC(=O)c1cccs1)c1c(N)n(Cc2ccccc2)c(=O)[nH]c1=O
The “hERG current change (%, negative = inhibition) at 10uM” value of the first is lower: -6.89% for the first, 8.82% for the second.

First: CC(CN1C(C)CCCC1C)OC(=O)c1ccc(F)cc1.Cl (stereo not shown)
Second: CC1(C)C(=O)N(CCN2CCC(C(=O)c3ccc(F)cc3)CC2)c2ccccc21.Cl
The “hERG current change (%, negative = inhibition) at 10uM” value of the first is higher: -6.06% for the first, -70.5% for the second.

Compared with `Cc1ccc(CC(=O)N(Cc2ccccc2)c2ccccn2)cc1`, `CC(=O)Nc1ccc(S(=O)(=O)N(Cc2ccccc2)c2ccccc2)cc1` is higher in “hERG current change (%, negative = inhibition) at 10uM” value: -43.8% for the first, 2.21% for the second.

Compared with `COc1ccc(/C=N/NC(=O)c2cccnc2)cc1CN1CCc2ccccc2C1`, `Cc1nn(Cc2ccccc2)c(Cl)c1/C=N/NC(=O)c1cccnc1` is higher in “hERG current change (%, negative = inhibition) at 10uM” value: -17.9% for the first, -3.29% for the second.

Compared with `COc1ccc(C(=O)C(CCCCC(CN(C)C)C(=O)c2ccc(OC)cc2)CN(C)C)cc1.Cl` (stereo not shown), `CCOC(=O)c1ccc(NC(=O)c2ccccc2)cc1` is higher in “hERG current change (%, negative = inhibition) at 10uM” value: -2.07% for the first, 3.86% for the second.

First: CC(C)[C@H]1C(=O)Nc2ccccc2N1C(=O)N[C@@H](Cc1ccccc1)C(=O)N[C@@H](Cc1ccccc1)C(=O)O
Second: O=S(=O)(NCc1ccccc1)c1ccc2ccccc2c1
The “hERG current change (%, negative = inhibition) at 10uM” value of the first is lower: 5.66% for the first, 18.2% for the second.

First: O=C(Nc1ccccc1C(=O)Nc1ccncc1)c1cccc([N+](=O)[O-])c1
Second: Cc1onc(-c2ccccc2)c1C(=O)NCc1cccc(Cl)c1
The “hERG current change (%, negative = inhibition) at 10uM” value of the first is lower: -18.8% for the first, 15% for the second.

Going from `CC(C)c1ccccc1N1CC(C(=O)O)CC1=O` (stereo not shown) to `O=C(Cc1ccccc1)N1CCNCC1.O=C(O)C(=O)O`, the “hERG current change (%, negative = inhibition) at 10uM” value rises from 15.1% to 27.9%.

Going from `Cc1cc(C)nc(N/N=C/c2c(CO)cnc(C)c2O)n1` to `Cc1cccc(C)c1NC(=O)CNC(=O)Cn1nc(C)c(C)c(C#N)c1=O`, the “hERG current change (%, negative = inhibition) at 10uM” value rises from -10.7% to 9.86%.

Compared with `CCOC(=O)CSc1nccc(N(C)C)c1C#N`, `CCOC(=O)N1CCN(S(=O)(=O)c2ccc(OC)c(Cl)c2Cl)CC1` is lower in “hERG current change (%, negative = inhibition) at 10uM” value: 3.83% for the first, -8.27% for the second.

Going from `CN(Cc1c(C(=O)N/N=C/c2cc(F)ccc2F)nnn1-c1nonc1N)C1CCCCC1` to `CCn1c(NC2CCCCC2)nc2ccccc21`, the “hERG current change (%, negative = inhibition) at 10uM” value falls from 6.44% to -15%.

Going from `CC(C)c1ccc(S(=O)(=O)Nc2ccc(O)c(Sc3ncn[nH]3)c2)cc1` to `Cc1nc(CNS(=O)(=O)c2ccc(Br)cc2)cs1`, the “hERG current change (%, negative = inhibition) at 10uM” value rises from -6.1% to 26%.

Compared with `Cc1ccc(CNC(=O)CCNC(=O)Cn2ccc3ccccc3c2=O)o1`, `O=C(NCc1ccccc1)C1=C[C@@H](C2CC2)C[C@@H](OCc2ccc(CO)cc2)O1` is lower in “hERG current change (%, negative = inhibition) at 10uM” value: 10.1% for the first, -44.2% for the second.

Compared with `Cc1ccc(OCc2ccc(C(=O)Nc3c(C)nn(Cc4c(F)c(F)c(F)c(F)c4F)c3C)o2)c([N+](=O)[O-])c1`, `O=C(NCCCn1ccnc1)c1cc([N+](=O)[O-])cc([N+](=O)[O-])c1` is higher in “hERG current change (%, negative = inhibition) at 10uM” value: -28.2% for the first, -4.05% for the second.

First: COc1cc(C(=O)NNC(=O)C2CC2)cc(OC)c1OC
Second: COc1cc(/C=C/C(=O)N2CCc3ccccc3C2)cc(OC)c1OC
The “hERG current change (%, negative = inhibition) at 10uM” value of the first is higher: 13.7% for the first, -15.8% for the second.

Compared with `COc1ccc(S(=O)(=O)NC2CC3CCC2C3)cc1` (stereo not shown), `COc1ccc(C(=O)OCCN2CCCCC2)cc1.Cl` is lower in “hERG current change (%, negative = inhibition) at 10uM” value: 15.4% for the first, 0.271% for the second.

Going from `O=C(Nc1ncn[nH]1)c1c(Cl)ccc(Cl)c1Cl` to `COc1ccc(C2=NN(C(=O)c3ccco3)C(c3ccco3)C2)cc1OC` (stereo not shown), the “hERG current change (%, negative = inhibition) at 10uM” value rises from 3.73% to 7.24%.

For `C1CNCCOCCNCCN1`, the “hERG current change (%, negative = inhibition) at 10uM” value was -1.69%.
